According to the supplement of paper PMC12217912:
This is one part of the list. Sequences were assembled here from the parent chain. Inactive controls read about 0.05.

B1: TEV protease; numbered along this chain (parent)
chain: MGESLFKGPRDYNPISSSICHLTNESDGHTTSLYGIGFGPFIITNKHLFRRNNGTLVVQSLHGVFKVKDTTTLQQHLVDGRDMIIIRMPKDFPPFPQKLKFREPQREERICLVTTNFQTKSMSSMVSDTSCTFPSGDGIFWKHWIQTKDGQCGSPLVSTRDGFIVGIHSASNFTNTNNYFTSVPKNFMELLTNQEAQQWVSGWRLNADSVLWGGHKVFMVKPEEPFQPVKEATQL

Variants of: B1
Assay: raw area under fraction-flipped curve 0-4 h after induction (AUC4h, not background-subtracted), DNA-recorder readout of cleavage of the substrate (dimensionless); higher = more cleavage of the substrate by the protease variant
Conditions: temperature: 34 °C; time window: 0-4 h after rhamnose induction
Method: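 In vivo DNA recorder in E. coli TOP10(DE3) ΔrhaA at 34 °C. Each TEVp single-site mutant (parent TEVp 0) is paired with a single-site variant of the 7-mer TEVs (canonical ENLYFQ|S). The substrate sits between flexible linkers in a Bxb1-sfGFP-TEVs-SsrA fusion, so cleavage stabilises Bxb1 and speeds flipping of a recombination array, read by NGS. The value is the raw area under the fraction-flipped curve over 0-4 h after rhamnose induction (AUC4h), with ≥20 reads per time point. It is not background-subtracted; inactive controls average about 0.047.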
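Note: Bxb1 expression induced with 0.2% (w/v) L-rhamnose at OD600 near 0.5, cultures sampled hourly, flipped fraction per protease–substrate barcode pair counted by paired-end Illumina sequencing.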

Row | Variant | area with substrate ENLYFAS | area with substrate ENLYFCS | area with substrate ENLYFFS | area with substrate ENLYFGS | area with substrate ENLYFHS | area with substrate ENLYFIS | area with substrate ENLYFKS | area with substrate ENLYFLS | area with substrate ENLYFMS | area with substrate ENLYFNS | area with substrate ENLYFPS | area with substrate ENLYFRS | area with substrate ENLYFSS | area with substrate ENLYFTS | area with substrate ENLYFVS | area with substrate ENLYFWS | area with substrate ENLYFYS | area with substrate ENLYFES | area with substrate ENLYFDS
1 | V113A | 0.0581 | 0.0656 | 0.079 | 0.0859 | 0.0598 | 0.0532 | 0.0583 | 0.0635 | 0.0801 | 0.0635 | 0.0608 | 0.0625 | 0.059 | 0.0696 | 0.0665 | 0.0616 | 0.0215 |  | 
2 | V113T | 0.0578 |  | 0.0639 | 0.0616 |  | 0.0451 | 0.0594 |  | 0.0597 | 0.0634 | 0.058 | 0.0479 | 0.0643 |  | 0.041 | 0.0499 |  | 0.0781 | 
3 | P155Y | 0.0388 | 0.0389 | 0.0678 | 0.0434 | 0.0444 | 0.0583 |  | 0.0569 | 0.0472 |  | 0.0338 | 0.0506 |  | 0.0561 |  |  | 0.0454 | 0.0511 | 
4 | S154G | 0.0614 | 0.0586 |  |  |  | 0.047 |  | 0.0686 | 0.0481 | 0.0577 | 0.0684 | 0.0669 | 0.0646 | 0.0572 | 0.069 |  | 0.0281 |  | 0.063
5 | D137K | 0.0568 |  | 0.0594 | 0.0607 | 0.0652 | 0.0641 |  |  | 0.0633 |  |  | 0.0307 | 0.0471 | 0.0595 |  | 0.0546 | 0.062 |  | 0.0768
6 | D137C | 0.0607 |  | 0.0713 |  | 0.08 |  | 0.0676 | 0.0831 |  |  | 0.0681 |  |  | 0.0591 |  |  |  | 0.0716 | 
7 | S130Q | 0.0644 | 0.0565 |  | 0.0673 | 0.0516 | 0.0532 |  |  | 0.0975 | 0.0475 | 0.0457 | 0.0584 |  | 0.0624 |  |  |  |  | 
8 | S130N | 0.0697 | 0.0609 | 0.0897 |  |  | 0.0438 | 0.0654 |  | 0.0611 |  | 0.061 | 0.0478 | 0.0401 | 0.0103 |  | 0.0629 |  | 0.0626 | 
9 | S130G | 0.0666 | 0.0589 | 0.0612 | 0.0696 | 0.0547 | 0.0564 | 0.0593 | 0.0598 | 0.062 | 0.0643 | 0.0488 |  | 0.0598 |  |  |  |  | 0.0555 | 
10 | N116E | 0.0501 |  | 0.0698 | 0.0571 |  | 0.0589 |  | 0.0605 | 0.0711 |  | 0.0541 | 0.042 | 0.0598 | 0.0495 | 0.0621 | 0.0529 | 0.0766 | 0.061 | 0.0605
11 | N116K | 0.0526 |  | 0.0913 |  |  | 0.0771 |  |  | 0.0441 |  | 0.0594 | 0.0601 | 0.0636 | 0.078 | 0.04 |  |  | 0.0662 | 
12 | K148P | 0.0657 |  |  | 0.0704 |  | 0.0577 | 0.0615 | 0.0479 | 0.0587 |  |  | 0.0718 |  |  |  | 0.0521 |  | 0.059 | 
13 | C111N | 0.0638 | 0.0503 |  |  | 0.0607 | 0.054 |  |  | 0.0652 |  | 0.0496 | 0.0506 | 0.0653 |  | 0.0351 | 0.0581 | 0.0576 |  | 0.0503
14 | C111I | 0.0628 | 0.0575 | 0.0609 | 0.0601 | 0.0622 | 0.0545 | 0.0454 |  | 0.067 | 0.0524 | 0.0658 | 0.0701 |  | 0.0568 | 0.0701 | 0.0697 |  | 0.0568 | 0.0493
15 | R160H | 0.0498 |  | 0.072 |  | 0.0574 | 0.0497 | 0.0814 |  | 0.065 |  | 0.0615 |  |  |  |  | 0.0498 |  |  | 0.063
16 | H143W | 0.0377 |  |  | 0.0514 | 0.0531 | 0.0652 | 0.0604 | 0.0585 | 0.0618 | 0.0561 | 0.0628 | 0.053 | 0.0594 | 0.0503 | 0.0534 | 0.0514 | 0.0684 | 0.0592 | 0.0583
17 | H143K | 0.0599 | 0.0527 | 0.0653 |  | 0.055 | 0.0513 | 0.0581 | 0.0529 | 0.0619 | 0.0574 | 0.0618 | 0.0467 | 0.0494 | 0.0613 |  |  |  | 0.057 | 0.0553
18 | F133Y | 0.0555 | 0.0291 |  |  | 0.0795 | 0.0495 | 0.042 | 0.0524 | 0.065 |  | 0.0588 |  |  |  |  |  |  |  | 
19 | F133Q | 0.0706 | 0.0466 |  |  |  | 0.0629 | 0.0683 |  | 0.0647 |  | 0.0491 | 0.0502 |  | 0.0662 |  | 0.0558 |  |  | 
20 | F117G | 0.0456 |  |  |  |  | 0.0572 | 0.056 |  | 0.0643 | 0.0765 | 0.0889 | 0.0532 |  | 0.0638 |  | 0.0622 |  | 0.0538 | 0.0795
21 | S123V | 0.0693 | 0.0579 |  |  | 0.0851 | 0.0612 |  |  | 0.0788 | 0.0526 | 0.0612 | 0.0614 | 0.0728 | 0.0661 |  |  | 0.0676 | 0.0691 | 0.0546
22 | T114P | 0.0558 |  | 0.0669 |  |  | 0.0468 |  |  | 0.0571 |  | 0.0587 |  | 0.0505 | 0.0555 |  | 0.0539 |  |  | 0.0543
23 | T114Q | 0.0594 | 0.0557 | 0.0706 | 0.0589 |  | 0.0596 | 0.05 | 0.0614 | 0.0702 | 0.0737 |  | 0.0684 | 0.055 | 0.0513 |  | 0.0552 |  | 0.0725 | 0.0447
24 | T159L | 0.051 | 0.0542 | 0.0782 | 0.0574 |  | 0.056 | 0.0593 | 0.0181 | 0.0575 | 0.0755 | 0.068 | 0.0384 |  | 0.0554 |  | 0.0713 | 0.0527 | 0.0669 | 
25 | S121L | 0.0638 |  | 0.0704 |  | 0.0459 | 0.0562 | 0.07 | 0.0711 | 0.0721 | 0.0592 | 0.0602 | 0.0521 | 0.0638 |  | 0.0527 | 0.0402 | 0.0713 | 0.0653 | 0.0706
26 | S121V | 0.0291 | 0.0655 | 0.0694 | 0.0576 | 0.0532 | 0.0592 |  | 0.0658 |  |  | 0.0482 | 0.0552 | 0.0664 | 0.0474 |  | 0.0592 | 0.0507 |  | 
27 | S121D | 0.0641 |  | 0.0639 |  | 0.0504 | 0.0582 | 0.0643 | 0.0671 | 0.0693 | 0.0647 | 0.0665 | 0.055 | 0.0305 | 0.0553 |  | 0.0592 | 0.0567 | 0.0652 | 
28 | I145Y | 0.049 |  | 0.0581 | 0.073 | 0.0595 | 0.0515 |  | 0.0589 |  | 0.0618 | 0.0624 |  | 0.0595 | 0.0555 | 0.0812 | 0.0766 | 0.0591 | 0.0632 | 0.068
